Experimental findings from patent US20090306572A1 (Affibody, published 2009) are described below.

Where a chain is given by its changes, count along the chain named.

B1: SEQ ID NO 66 (designed binder, not shown: large carriers; small tags and cut ends)
chain: VDNKFNKEAHSALREILKLPNLNIEQWQAFIRSLADDPSQSANLLAEAKKLNDAQAPK
notes: Z variant tested as fusion with ABD
B2: SEQ ID NO 12 (designed binder, not shown: large carriers; small tags and cut ends)
chain: VDNKFNKETVPAMREIASLPNLNTTQKVAFIRSLSDDPSQSANLLAEAKKLNDAQAPK
notes: as for B1
B3: SEQ ID NO 10 (designed binder, not shown: large carriers; small tags and cut ends)
chain: VDNKFNKECSMAPREIWALPNLNREQAVAFIRSLCDDPSQSANLLAEAKKLNDAQAPK
notes: as for B1
B4: SEQ ID NO 13 (designed binder, not shown: large carriers; small tags and cut ends)
chain: B3 chain with S10A, M11Y, A18R, R24H, E25Q, A27G
notes: as for B1
B5: SEQ ID NO 11 (designed binder, not shown: large carriers; small tags and cut ends)
chain: VDNKFNKECRTAPREIFSLPNLNIGQQWAFIRSLCDDPSQSANLLAEAKKLNDAQAPK
notes: as for B1
B6: SEQ ID NO 64 (designed binder)
chain: VDNKFNKEFIDAPREILRLPNLNMTQQMAFIRSLADDPSQSANLLAEAKKLNDAQAPK
notes: Z variant tested as fusion with ABD; not shown: It only anchors the fusion to coated HSA
B7: SEQ ID NO 65 (designed binder)
chain: VDNKFNKETMAAMNEIVRLPNLNGWQRYAFIQSLRDDPSQSANLLAEAKKLNDAQAPK
notes: as for B6
B8: SEQ ID NO 15 (designed binder, not shown: large carriers; small tags and cut ends)
chain: VDNKFNKERVAAACEIESLPNLNLQQCWAFIRSLMDDPSQSANLLAEAKKLNDAQAPK
notes: as for B1
B9: SEQ ID NO 22 (designed binder, not shown: large carriers; small tags and cut ends)
chain: B8 chain with V10T, A11V, A13S, S18H, Q25D, R32D, M35R
notes: as for B1
B10: SEQ ID NO 51 (designed binder, not shown: large carriers; small tags and cut ends)
chain: VDNKFNKETEWAIAEIIGLPNLNLHQYYAFIMSLRDDPSQSANLLAEAKKLNDAQAPK
notes: as for B1
B11: SEQ ID NO 16 (designed binder, not shown: large carriers; small tags and cut ends)
chain: VDNKFNKECFMAPQEINKLPNLNAWQKYAFIWSLCDDPSQSANLLAEAKKLNDAQAPK
notes: as for B1
B12: SEQ ID NO 70 (designed binder, not shown: large carriers; small tags and cut ends)
chain: VDNKFNKEWEWASKEIVILPNLNTQQRAAFIRSLWDDPSQSANLLAEAKKLNDAQAPK
notes: as for B1
B13: SEQ ID NO 60 (designed binder)
chain: VDNKFNKETFHAIGEIGSLPNLNDMQFSAFIISLWDDPSQSANLLAEAKKLNDAQAPK
notes: as for B6
B14: SEQ ID NO 2 (designed binder, not shown: large carriers; small tags and cut ends)
chain: VDNKFNKEAAWAPFEIQHLPNLNHPQNDAFIDSLTDDPSQSANLLAEAKKLNDAQAPK
notes: as for B1
B15: SEQ ID NO 67 (designed binder, not shown: large carriers; small tags and cut ends)
chain: VDNKFNKEWHDALREIHRLPNLNVYQSLAFIRSLVDDPSQSANLLAEAKKLNDAQAPK
notes: as for B1
B16: SEQ ID NO 18 (designed binder, not shown: large carriers; small tags and cut ends)
chain: VDNKFNKEFVYAIAEIMNLPNLNQSQQLAFIYSLRDDPSQSANLLAEAKKLNDAQAPK
notes: as for B1
B17: SEQ ID NO 47 (designed binder, not shown: large carriers; small tags and cut ends)
chain: VDNKFNKEVVGAMLEIARLPNLNRGQVNAFIWSLADDPSQSANLLAEAKKLNDAQAPK
notes: as for B1
B18: SEQ ID NO 9 (designed binder, not shown: large carriers; small tags and cut ends)
chain: VDNKFNKEGRTAACEIQDLPNLNLDQCWAFIKSLLDDPSQSANLLAEAKKLNDAQAPK
notes: as for B1
B19: SEQ ID NO 52 (designed binder, not shown: large carriers; small tags and cut ends)
chain: VDNKFNKEAYTASLEIANLPNLNMHQYYAFIHSLLDDPSQSANLLAEAKKLNDAQAPK
notes: as for B1
B20: SEQ ID NO 53 (designed binder, not shown: large carriers; small tags and cut ends)
chain: B19 chain with A9M, Y10R, T11W, S13A, N18A, M24V, H32R
notes: as for B1
B21: SEQ ID NO 68 (designed binder, not shown: large carriers; small tags and cut ends)
chain: B19 chain with A9L, T11Y, S13K, M24V, Y27W, H32I, L35E
notes: as for B1
B22: SEQ ID NO 63 (designed binder)
chain: VDNKFNKEAPGATSEINILPNLNWRQIMAFIVSLRDDPSQSANLLAEAKKLNDAQAPK
notes: as for B6
B23: SEQ ID NO 50 (designed binder, not shown: large carriers; small tags and cut ends)
chain: VDNKFNKEPLAAVMEIVQLPNLNMHQYYAFIRSLNDDPSQSANLLAEAKKLNDAQAPK
notes: as for B1
B24: SEQ ID NO 6 (designed binder, not shown: large carriers; small tags and cut ends)
chain: VDNKFNKESEGAMHEIVRLPNLNAWQRQAFIVSLWDDPSQSANLLAEAKKLNDAQAPK
notes: as for B1
B25: SEQ ID NO 21 (designed binder, not shown: large carriers; small tags and cut ends)
chain: VDNKFNKEHMEADCEIEHLPNLNRKQCWAFIKSLRDDPSQSANLLAEAKKLNDAQAPK
notes: as for B1
B26: SEQ ID NO 54 (designed binder, not shown: large carriers; small tags and cut ends)
chain: VDNKFNKEFHGAIREIHLLPNLNLQQRMAFIISLTDDPSQSANLLAEAKKLNDAQAPK
notes: as for B1
B27: SEQ ID NO 5 (designed binder, not shown: large carriers; small tags and cut ends)
chain: VDNKFNKELGWAIGEIGTLPNLNHQQFRAFILSLWDDPSQSANLLAEAKKLNDAQAPK
notes: as for B1
B28: SEQ ID NO 3 (designed binder, not shown: large carriers; small tags and cut ends)
chain: VDNKFNKEMFGAVGEIGALPNLNDRQLRAFILSLWDDPSQSANLLAEAKKLNDAQAPK
notes: as for B1
B29: SEQ ID NO 74 (designed binder, not shown: large carriers; small tags and cut ends)
chain: B27 chain with L9V, G10F, I13A, T18I, Q25M, F27Y
notes: as for B1
B30: SEQ ID NO 59 (designed binder)
chain: B28 chain with G11S, V13I, A18N, R28A, W35F
notes: as for B6
B31: SEQ ID NO 69 (designed binder, not shown: large carriers; small tags and cut ends)
chain: B28 chain with M9V, F10R, G11F, V13I, A18G
notes: as for B1
B32: SEQ ID NO 55 (designed binder, not shown: large carriers; small tags and cut ends)
chain: VDNKFNKEWKAAAREIGSLPNLNLHQYYAFIVSLQDDPSQSANLLAEAKKLNDAQAPK
notes: as for B1
B33: SEQ ID NO 73 (designed binder, not shown: large carriers; small tags and cut ends)
chain: VDNKFNKETAQAPLEIALLPNLNWPQKVAFIRSLADDPSQSANLLAEAKKLNDAQAPK
notes: as for B1
B34: SEQ ID NO 14 (designed binder, not shown: large carriers; small tags and cut ends)
chain: VDNKFNKEPNVASMEILPLPNLNNQQMTAFIQSLDDDPSQSANLLAEAKKLNDAQAPK
notes: as for B1

The target in this experiment is T1, biotin-conjugated, recombinant TNF-α produced in E. coli (human, UniProt P01375 77-233, biotin-conjugated (sites not given)).
T1 construct: Research Diagnostics Inc, cat no RDI-301X; also called Biotinylated TNF-α
In words: ELISA: Z-ABD fusion captured on HSA, biotinylated TNF-α 1 µg/ml, signal above threshold.
B1: the binding result was “binds”.

Consider B2, for which the binding result is recorded as “binds”. Take B3: the binding result is reported as “binds”.

On to B4, for which the binding result is on record as “binds”. Consider B5, for which the binding result was “binds”. To B6 belongs “binds”. On to B7, for which the binding result was “binds”. B8: the binding result was “binds”. On to B9, for which the binding result is “binds”. B10: the binding result is “binds”. As to B11, the binding result is listed as “binds”.

Take B12: the binding result is listed as “binds”. Regarding B13, the binding result is on record as “binds”. Consider B14, for which the binding result is given as “binds”. As for B15, the binding result is recorded as “binds”.

B16: the binding result is listed as “binds”. Then B17, with “binds”. Then B18, with “binds”.

With B19, the binding result was “binds”. B20: the binding result was “binds”. For the molecule B21, the binding result is recorded as “binds”. For the molecule B22, the binding result is “binds”. Regarding B23, the binding result was “binds”.

In the case of B24, the binding result was “binds”. Turning to B25, the binding result is on record as “binds”. On to B26, for which the binding result is reported as “binds”. To B27 belongs “binds”; to B28, “binds”; to B29, “binds”.

Regarding B30, the binding result is given as “binds”. Consider B31, for which the binding result is “binds”. Consider B32, for which the binding result was “binds”. As for B33, the binding result is “binds”.

B34: the binding result is recorded as “binds”.
